In PubChem BioAssay (Tox21):
Several values for one entry are separate records, joined by “and”; a condition that tells them apart may be missing. Identical values can stand only once. The inconclusive results got no clear call from the source; some entries with a clear call stand among them for comparison. A potency beside an inconclusive call is a rough fit, not a confirmed value. Some structures have more than one record in an assay (separate samples or runs), and their calls can disagree. Activity calls are given as the source filed them. Unless noted, calls follow the shape of the dose curve; as a rule, active = well fitted cell-killing curve with a large enough effect in the repeat runs; inconclusive = weak or mixed curves, or effect the other way; inactive = no such curve, though single readings can be large or run the other way.

Key:
[1] = qHTS assay to identify small molecule agonists of the farnesoid-X-receptor (FXR) signaling pathway - cell viability counter screen (AID 743218); conditions: FXR-bla HEK293T viability, CellTiter-Glo luminescence, 16 h; viability change, negative = cytotoxic: at 62.6 µM (top of the series) unless noted; also: nearly all actives have a fitted effect of over 45% in size
Outline: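 Cytotoxicity counter-screen run in parallel, same wells: FXR-UAS-bla HEK 293T cells dosed 16 h at 37 C, viability read by CellTiter-Glo luminescence after 30 min at room temperature.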

[2] = target: Bile acid receptor (Homo sapiens) (UniProt Q96RI1); assay: qHTS assay to identify small molecule agonists of the farnesoid-X-receptor (FXR) signaling pathway (AID 743220; active = well fitted activation curve with a large enough effect in the signal ratio in the repeat runs, not every such curve was filed as active; inconclusive = weak or mixed curves, or effect the other way; the % refers to the signal ratio; as to activation: % is scaled to controls: 0 for no effect and ±100 for the full control effect); conditions: HEK293T FXR-UAS-bla, beta-lactamase FRET ratio, 16 h; activation: at 62.6 µM (top of the series) unless noted
Outline: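 Beta-lactamase reporter under UAS control in GeneBLAzer FXR HEK 293T cells (5000/well) measured with LiveBLAzer FRET substrate after 2 h at room temperature. Compound exposure lasted 16 h at 37C.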

[3] = qHTS assay to identify small molecule antagonists of the farnesoid-X-receptor (FXR) signaling pathway - cell viability counter screen (AID 743221; active = well fitted cell-killing curve with a large enough effect in the repeat runs, not every such curve was filed as active; inconclusive = weak or mixed curves, or effect the other way; inactive = no such curve, though single readings can be large or run the other way; also: nearly all actives have a fitted effect of over 50% in size; as to activity change, negative = cytotoxicity: % is scaled to controls: 0 for no effect and ±100 for the full control effect); conditions: FXR-bla HEK293T viability, CellTiter-Glo luminescence, 16 h; activity change, negative = cytotoxicity: at 62.6 µM (top of the series) unless noted
Outline: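 FXR-UAS-bla HEK 293T cells were treated with test compounds plus chenodeoxycholic acid (50 uM final) for 16 h at 37 C. Cell viability in the same wells was then read as CellTiter-Glo luminescence after 30 min at room temperature.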

[4] = target: Vitamin D3 receptor (Homo sapiens) (UniProt P11473); assay: qHTS assay to identify small molecule agonists of the vitamin D receptor (VDR) signaling pathway (AID 743222; calls by dose curve); conditions: HEK293T VDR-UAS-bla, beta-lactamase FRET ratio, 16 h; activation: at 63.5 µM (top of the series) unless noted
Outline: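 Quantitative HTS agonist-mode screen: compounds in DMSO were pin-transferred onto VDR-bla cells and incubated 16 h at 37C, 5% CO2. Reporter activity was detected with LiveBLAzer B/G FRET substrate after 2 h at room temperature.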

[5] = target: Vitamin D3 receptor (Homo sapiens) (UniProt P11473); assay: qHTS assay to identify small molecule antagonists of the vitamin D receptor (VDR) signaling pathway (AID 743223; active = well fitted inhibition curve with a large enough effect in the signal ratio in the repeat runs, not every such curve was filed as active; inconclusive = weak or mixed curves, or effect the other way; inactive = no such curve, though single readings can be large or run the other way; the % refers to the signal ratio; as to activity change, negative = inhibition: % is scaled to controls: 0 for no effect and ±100 for the full control effect); conditions: VDR-UAS-bla HEK293T, beta-lactamase FRET ratio, 16 h; activity change, negative = inhibition: at 61 µM (top of the series) unless noted
Outline: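 VDR-bla cells were plated, incubated 4 h at 37C, then given compound and 1alpha,25-dihydroxyvitamin D3 (3 nM final). After 16 h at 37C, LiveBLAzer B/G FRET substrate was added for 2 h at room temperature and fluorescence read.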

[6] = qHTS assay to identify small molecule antagonists of the vitamin D receptor (VDR) signaling pathway - cell viability counter screen (AID 743225); conditions: VDR-bla HEK293T viability, CellTiter-Glo luminescence, 16 h; viability change, negative = cytotoxic: at 61 µM (top of the series); also: nearly all actives have a fitted effect of over 50% in size
Outline: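 VDR-bla HEK 293T cells, 4 h pre-incubation at 37C, then compound plus 1-alpha,25-dihydroxyvitamin D3 (3 nM final) for 16 h. After the beta-lactamase FRET read, CellTiter-Glo was added to the same wells; luminescence after 30 min at room temperature.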

[7] = qHTS assay to identify small molecule agonists of the NFkB signaling pathway (AID 1159509; active = well fitted curve in the direction sought with a large enough effect in the signal ratio in the repeat runs, not every such curve was filed as active; inconclusive = weak or mixed curves, or a change in a side signal; inactive = no such curve, though single readings can be large or run the other way; the % refers to the signal ratio); conditions: NFkB-bla ME-180 cells, beta-lactamase FRET ratio, 5 h; activation: at 61 µM (top of the series) unless noted
Outline: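 ME-180 NFkB-bla, 2,000 cells/well, overnight plating; cpd pinned in DMSO, 5 h 37 C; B/G FRET substrate 1.5 h RT; ex 405, em 460/530 nm.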

[8] = qHTS assay to identify small molecule agonists of the NFkB signaling pathway - cell viability counter screen (AID 1159515; calls by dose curve; also: nearly all actives have a fitted effect of over 55% in size)
Outline: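 Multiplexed viability readout: after the 5 hr compound exposure and 1.5 hr FRET substrate step, CellTiter-Glo reagent went into the same NFkB-bla ME-180 wells; ATP luminescence was measured after 30 min at room temperature.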

[9] = qHTS assay to identify small molecule agonists of the endoplasmic reticulum stress response signaling pathway (AID 1159516; active = well fitted activation curve with a large enough effect in the signal ratio in the repeat runs, not every such curve was filed as active; inconclusive = weak or mixed curves, or effect the other way; the % refers to the signal ratio; as to activation: % is scaled to controls: 0 for no effect and ±100 for the full control effect); conditions: ESRE-bla HeLa, ER stress beta-lactamase reporter, 5 h; activation: at 61 µM (top of the series) unless noted
Outline: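 Tox21 10K library screened in quantitative HTS format on ESRE-bla HeLa cells, a beta-lactamase reporter under ER stress response element control; 5 hr treatment, FRET read.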

[10] = qHTS assay to identify small molecule agonists of the vitamin D receptor (VDR) signaling pathway - cell viability counter screen (AID 743224); also: nearly all actives have a fitted effect of over 50% in size
Outline: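 Viability is measured in the same wells as the VDR-bla reporter assay: after 16 h compound treatment and 2 h substrate loading, CellTiter-Glo is added and luminescence read 30 min later.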
Potency is read from the fitted curve at half-maximal effect; tags tell the direction and shape of the fitted curve or compound fluorescence and quenching.

Sequence of UniProt Q96RI1 (Q96RI1 whole entry, looked up): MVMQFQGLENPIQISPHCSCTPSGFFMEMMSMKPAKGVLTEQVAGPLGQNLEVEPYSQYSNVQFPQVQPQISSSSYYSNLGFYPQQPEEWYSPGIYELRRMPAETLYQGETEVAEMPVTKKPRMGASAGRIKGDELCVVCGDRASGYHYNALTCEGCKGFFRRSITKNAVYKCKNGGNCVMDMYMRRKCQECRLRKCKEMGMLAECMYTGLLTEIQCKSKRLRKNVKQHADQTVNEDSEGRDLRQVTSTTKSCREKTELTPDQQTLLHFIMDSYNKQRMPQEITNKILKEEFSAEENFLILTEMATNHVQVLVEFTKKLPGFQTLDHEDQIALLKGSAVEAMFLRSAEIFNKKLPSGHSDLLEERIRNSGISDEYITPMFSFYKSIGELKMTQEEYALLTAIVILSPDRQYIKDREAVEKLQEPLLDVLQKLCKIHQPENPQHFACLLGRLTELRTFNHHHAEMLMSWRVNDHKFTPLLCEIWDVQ
Sequence of UniProt P11473 (P11473 whole entry, looked up): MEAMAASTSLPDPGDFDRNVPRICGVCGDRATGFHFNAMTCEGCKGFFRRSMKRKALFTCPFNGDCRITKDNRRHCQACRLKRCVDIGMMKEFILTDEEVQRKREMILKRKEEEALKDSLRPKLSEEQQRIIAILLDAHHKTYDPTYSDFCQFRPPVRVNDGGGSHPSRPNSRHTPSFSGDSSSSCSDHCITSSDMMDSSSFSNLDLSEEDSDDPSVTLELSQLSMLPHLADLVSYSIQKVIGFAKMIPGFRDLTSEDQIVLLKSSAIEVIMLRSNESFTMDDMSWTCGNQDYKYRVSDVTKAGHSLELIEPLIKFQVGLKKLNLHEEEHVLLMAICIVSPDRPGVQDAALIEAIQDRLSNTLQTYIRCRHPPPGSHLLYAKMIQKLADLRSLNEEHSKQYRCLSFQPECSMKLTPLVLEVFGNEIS

## CCCCCCCCCC[N+](C)(C)CCCCCCCCCC
[1]
  Potency: active: 49 µM
[2]
  Potency: inconclusive: 61.6 µM [cytotoxic]
[3]
  Potency: active: 54.9 µM
[4]
  Potency: inconclusive: 30.9 µM [cytotoxic, single point]
[5]
  Potency: active: 43.6 µM
[6]
  Potency: active: 15.5 µM
[7]
  Potency: inconclusive: 49 µM [falling, partial curve]
[8]
  Potency: active: 54.9 µM
[9]
  Potency: inconclusive: 54.9 µM [cytotoxic, single point]

## CCCCCCCCCCCCCCC(Br)C(=O)O (stereo not given)
[1]
  Potency: active: 21.9 µM
[2]
  Potency: inconclusive: 24.5 µM [activator]
[3]
  Potency: inconclusive: 21.9 µM [falling, full curve]
[4]
  Potency: inconclusive: 27.5 µM [activator, partial curve, poor fit]
[10]
  Potency: inconclusive: 54.9 µM [cytotoxic, single point]
[6]
  Potency: inconclusive: 61.6 µM [cytotoxic, single point]
[7]
  Potency: inconclusive: 34.7 µM [falling, partial curve]
[8]
  Potency: active: 54.9 µM
[9]
  Potency: inconclusive: 34.7 µM [cytotoxic]

## COc1cc(OC)c(OC)cc1C=O
[1]
  Potency: inconclusive: 0.0238 µM [rising, full curve, poor fit]
[4]
  Potency: inconclusive: 53.3 µM [single point]
[5]
  activity change, negative = inhibition: inconclusive: -2.84%
[10]
  Potency: inconclusive: 53.3 µM [cytotoxic, single point]
[6]
  Potency: inconclusive: 2.38 µM [cytotoxic, partial curve, poor fit]
[7]
  Potency: inconclusive: 59.8 µM [rising, partial curve, poor fit]
[8]
  Potency: inconclusive: 59.8 µM [cytotoxic, partial curve, poor fit]
[9]
  Potency: inconclusive: 42.3 µM [rising, partial curve, poor fit]

## S=C=Nc1cccc2ccccc12
[3]
  Potency: inconclusive: 54.4 µM [falling, single point]
[4]
  Potency: inconclusive: 54.4 µM [rising, single point]
[7]
  Potency: inconclusive: 24.3 µM [falling, full curve]
[8]
  Potency: active: 21.7 µM
[9]
  activation: inconclusive: 0.531%

## O=C1C(I)=CC(=C(c2cc(I)c(O)c(I)c2)c2ccccc2C(=O)O)C=C1I
[2]
  activation: inconclusive: 8.64%
[3]
  Potency: inactive
[5]
  activity change, negative = inhibition: inconclusive: 19.6%
[10]
  Potency: inconclusive: 33.5 µM [cytotoxic]
[7]
  Potency: inconclusive: 26.8 µM [falling, single point]
[8]
  Potency: inconclusive: 0.0952 µM [cytotoxic, single point]
[9]
  Potency: inconclusive: 10.7 µM [rising, full curve]

## CCCN(CCC)c1c([N+](=O)[O-])cc(S(N)(=O)=O)cc1[N+](=O)[O-]
[2]
  Potency: inconclusive: 48.5 µM [falling, partial curve]
[3]
  Potency: active: 52.2 µM
[4]
  Potency: inconclusive: 11.7 µM [inhibitor]
[5]
  Potency: inconclusive: 38.2 µM
[6]
  Potency: active: 11.7 µM
[7]
  Potency: inconclusive: 52.2 µM
[8]
  Potency: active: 52.2 µM
[9]
  Potency: inconclusive: 58.6 µM [cytotoxic]

## O=C1C2CC=CCC2C(=O)N1SC(Cl)(Cl)Cl (stereo not given)
[3]
  Potency: active: 42.9 µM
[4]
  Potency: inconclusive: 4.29 µM [inhibitor, full curve, poor fit]
[5]
  Potency: inconclusive: 21.5 µM [rising, single point]
[10]
  Potency: active: 6.81 µM
[6]
  Potency: inactive and active: 21.5 µM
[7]
  Potency: inconclusive: 38.3 µM [falling, partial curve]
[8]
  Potency: inconclusive: 54.1 µM [cytotoxic, single point]
[9]
  Potency: inactive and inconclusive: 60.7 µM [single point]

## O=S1(=O)OC(c2cc(Br)c(O)c(Br)c2)(c2cc(Br)c(O)c(Br)c2)c2ccccc21
[1]
  viability change, negative = cytotoxic: inconclusive: -30.5% [cytotoxic]
[3]
  Potency: inconclusive: 40 µM
[5]
  activity change, negative = inhibition: inconclusive: 35.9%
[10]
  Potency: inconclusive: 22.5 µM [cytotoxic, partial curve, poor fit]
[7]
  Potency: inactive
[8]
  Potency: active: 40 µM
[9]
  Potency: inconclusive: 50.4 µM [activator]

## CC[C@H](C)[C@H]1O[C@]2(C=C[C@@H]1C)C[C@@H]1C[C@@H](C/C=C(\C)[C@@H](O[C@H]3C[C@H](OC)[C@@H](O[C@H]4C[C@H](OC)[C@@H](O)[C@H](C)O4)[C@H](C)O3)[C@@H](C)/C=C/C=C3\CO[C@@H]4[C@H](O)C(C)=C[C@@H](C(=O)O1)[C@]34O)O2
[1]
  Potency: active: 12.9 µM
[3]
  Potency: active: 12.9 µM
[4]
  Potency: inconclusive: 11.5 µM [rising, partial curve]
[5]
  Potency: inconclusive: 12.9 µM [rising, full curve]
[10]
  Potency: active: 7.27 µM
[6]
  Potency: active: 11.5 µM
[7]
  Potency: inconclusive: 32.5 µM
[8]
  Potency: active: 28.9 µM
[9]
  Potency: inconclusive: 28.9 µM [rising, partial curve]
